In one assay the test system is HSkMC. Kind of assay: cytotoxicity call (relative viability < 0.9). The note with it: 10 µM.
For the next assay, the system named is HepG2. The experiment in a line: cytotoxicity call (relative viability < 0.9). The note with it: 10 µM.
Another assay concerns S. aureus RN4220. Kind of assay: growth inhibition call (relative growth <= 0.2). The settings on record: 50 µM.

Structures are written as SMILES. This is one part of the list.

In the case of `CCS(=O)(=O)NCC[C@H]1CC[C@H](NS(=O)(=O)c2cccc(F)c2)[C@@H](CO)O1`, the cytotoxicity call in the assay with HSkMC and with HepG2 was “inactive” throughout. In addition, the growth inhibition call in the assay with S. aureus RN4220 was “inactive”.

On to `CC(C)NC(=O)Nc1cccc2c1O[C@H](CN(C)S(=O)(=O)c1cccs1)[C@H](C)CN([C@@H](C)CO)C2=O`, for which the cytotoxicity call in the assay with HSkMC and in the assay with HepG2 was “inactive” each time. Also, the growth inhibition call in the assay on S. aureus RN4220 was “inactive”.

On to `C[C@@H]1CCCCO[C@H](CN(C)CC2CC2)[C@H](C)CN([C@H](C)CO)C(=O)c2cc(NC(=O)NC3CCCCC3)ccc2O1`, for which the cytotoxicity call in the assay on HSkMC and in the assay with HepG2 was “inactive” each time. In addition, the growth inhibition call in the assay with S. aureus RN4220 was “inactive”.

As to `C[C@@H]1CN([C@@H](C)CO)C(=O)Cc2cc(NC(=O)Nc3ccc4c(c3)OCO4)ccc2O[C@@H]1CN(C)S(=O)(=O)c1cn(C)cn1`, the cytotoxicity call in the assay on HSkMC and in the assay on HepG2 was “inactive” throughout. Also, in the assay with S. aureus RN4220, the growth inhibition call is “inactive”.

For the compound `C[C@H](CO)N1C[C@H](C)[C@@H](CN(C)Cc2ccc(-c3ccccc3)cc2)Oc2ccc(NS(=O)(=O)c3ccc(F)cc3)cc2C1=O`, the cytotoxicity call in the assay with HSkMC was “inactive”. Further, the cytotoxicity call in the assay with HepG2 was “active”. In addition, the growth inhibition call in the assay on S. aureus RN4220 is “inactive”.

On to `Cc1ccc(S(=O)(=O)N(C)C[C@H]2OCCCC[C@H](C)Oc3ccc(NC(=O)Nc4ccccc4)cc3C(=O)N([C@H](C)CO)C[C@@H]2C)cc1`, for which the cytotoxicity call in the assay on HSkMC and with HepG2 was “inactive” each time. Moreover, in the assay with S. aureus RN4220, the growth inhibition call is “inactive”.

Turning to `O=C(C[C@@H]1CC[C@@H](NC(=O)c2cccnc2)[C@@H](CO)O1)NCCN1CCCCC1`, the cytotoxicity call with HSkMC and in the assay on HepG2 was “inactive” throughout. Besides, in the assay on S. aureus RN4220, the growth inhibition call is “inactive”.

Take `CO[C@H]1CN(C)C(=O)c2cc(NS(=O)(=O)CC(F)(F)F)ccc2OC[C@H](C)N(C(=O)c2ccc3c(c2)OCO3)C[C@@H]1C`: the cytotoxicity call in the assay with HSkMC and in the assay with HepG2 was “inactive” each time. For the same compound, in the assay on S. aureus RN4220, the growth inhibition call was “inactive”.

As for `C[C@H](CO)N1C[C@H](C)[C@H](CN(C)S(C)(=O)=O)OCCCC[C@H](C)Oc2ccc(N(C)C)cc2C1=O`, the cytotoxicity call in the assay with HSkMC and in the assay with HepG2 was “inactive” in each case. In addition, the growth inhibition call in the assay on S. aureus RN4220 is “inactive”.

As for `CC[C@@H](O[Si](C#C[Si](C(C)C)(C(C)C)C(C)C)(C(C)C)C(C)C)c1cn([C@H](C)c2ccccc2)nn1`, the cytotoxicity call in the assay with HSkMC and with HepG2 was “inactive” in each case. The growth inhibition call in the assay on S. aureus RN4220 was “inactive”.

Turning to `C[C@@H]1CN([C@@H](C)CO)C(=O)c2cc(NC(=O)CCN3CCOCC3)ccc2O[C@@H]1CN(C)S(=O)(=O)c1ccc(Cl)cc1`, the cytotoxicity call with HSkMC and with HepG2 was “inactive” throughout. The growth inhibition call in the assay on S. aureus RN4220 was “inactive”.

On to `Cc1ccc(-n2nc(C(C)(C)C)cc2NC(=O)Nc2ccc(OCCN3CCOCC3)c3ccccc23)cc1`, for which the cytotoxicity call in the assay on HSkMC and in the assay on HepG2 was “active” in each case. The growth inhibition call with S. aureus RN4220 was “inactive”.

Consider `N[C@H](CO)C(=O)O`, for which the cytotoxicity call in the assay on HSkMC and in the assay with HepG2 was “inactive” each time. For the same compound, the growth inhibition call in the assay on S. aureus RN4220 was “inactive”.

Take `C[C@@H]1CN([C@@H](C)CO)C(=O)c2cc(C#CCN(C)C)cnc2O[C@H]1CN(C)S(=O)(=O)c1ccccc1`: the cytotoxicity call with HSkMC and with HepG2 was “inactive” in each case. In the assay on S. aureus RN4220, the growth inhibition call was “inactive”.

With `CC(=O)N1Cc2cc(C(=O)NCc3cccc(F)c3)nc(-c3cccc(C4=CCCCC4)c3)c2[C@@H]1CCO`, the cytotoxicity call in the assay on HSkMC and in the assay on HepG2 was “inactive” each time. Also, the growth inhibition call in the assay with S. aureus RN4220 was “inactive”.

As for `C[C@@H]1CN([C@@H](C)CO)C(=O)Cc2cc(NC(=O)CCC(F)(F)F)ccc2O[C@@H]1CN(C)Cc1ccc(C(F)(F)F)cc1`, the cytotoxicity call in the assay with HSkMC and in the assay on HepG2 was “inactive” each time. For the same compound, in the assay with S. aureus RN4220, the growth inhibition call is “inactive”.

Take `CN(Cc1cc(Br)cc(Br)c1N)C1CCCCC1.Cl`: the cytotoxicity call with HSkMC and in the assay with HepG2 was “inactive” each time. For the same compound, the growth inhibition call with S. aureus RN4220 is “inactive”.

For `C[C@@H]1CN([C@@H](C)CO)S(=O)(=O)c2ccc(Br)cc2O[C@H]1CN(C)C(=O)c1cccc(F)c1`, the cytotoxicity call in the assay with HSkMC and with HepG2 was “inactive” throughout. Further, the growth inhibition call with S. aureus RN4220 was “inactive”.

Take `C[C@H](CO)N1C[C@H](C)[C@H](CN(C)C(=O)c2ccncc2)Oc2cc(C#Cc3ccncc3)ccc2S1(=O)=O`: the cytotoxicity call in the assay on HSkMC is “inactive”. Moreover, the cytotoxicity call in the assay with HepG2 is “active”. In addition, the growth inhibition call in the assay with S. aureus RN4220 is “inactive”.

Turning to `C[C@@H]1CN([C@@H](C)CO)C(=O)c2cc(NC(=O)c3ccncc3)ccc2O[C@H]1CN(C)Cc1ccc2c(c1)OCO2`, the cytotoxicity call in the assay with HSkMC and with HepG2 was “inactive” each time. Moreover, the growth inhibition call in the assay with S. aureus RN4220 was “inactive”.

For `C[C@H](CO)N1C[C@H](C)[C@@H](CN(C)S(=O)(=O)c2cccs2)Oc2ccc(NC(=O)CCCN(C)C)cc2CC1=O`, the cytotoxicity call in the assay on HSkMC and in the assay with HepG2 was “inactive” throughout. The growth inhibition call with S. aureus RN4220 was “inactive”.

Regarding `COc1ccc(NC(=O)N(C)C[C@H]2Oc3ccc(NC(=O)CCCCCC(=O)Nc4ccccc4N)cc3CC(=O)N([C@@H](C)CO)C[C@H]2C)cc1`, the cytotoxicity call with HSkMC and with HepG2 was “inactive” each time. The growth inhibition call in the assay with S. aureus RN4220 was “inactive”.

In the case of `CO[C@H]1C[C@@H]2CC[C@@H](C)[C@@](O)(O2)C(=O)C(=O)N2CCCC[C@@H]2C(=O)O[C@H]([C@H](C)C[C@@H]2CC[C@@H](O)[C@H](OC)C2)CC(=O)[C@H](C)/C=C(\C)[C@@H](O)[C@@H](OC)C(=O)[C@H](C)C[C@H](C)/C=C/C=C/C=C/1C`, the cytotoxicity call in the assay on HSkMC and in the assay with HepG2 was “inactive” in each case. Moreover, the growth inhibition call in the assay on S. aureus RN4220 is “inactive”.

For the compound `Cc1cc(C(=O)Nc2cccc3c2O[C@@H](CN(C)Cc2ccc(Oc4ccccc4)cc2)[C@H](C)CN([C@H](C)CO)C3=O)n(C)n1`, the cytotoxicity call in the assay on HSkMC and in the assay with HepG2 was “inactive” throughout. Moreover, the growth inhibition call with S. aureus RN4220 was “inactive”.

Regarding `Cc1noc(C)c1S(=O)(=O)N(C)C[C@@H]1Oc2ccc(NC(=O)CCN3CCOCC3)cc2CC(=O)N([C@@H](C)CO)C[C@@H]1C`, the cytotoxicity call in the assay on HSkMC and with HepG2 was “inactive” each time. Further, the growth inhibition call in the assay on S. aureus RN4220 is “inactive”.

As for `CC(C)NC(=O)N(C)C[C@H]1Oc2ccc(NC(=O)CCN3CCOCC3)cc2C(=O)N([C@@H](C)CO)C[C@@H]1C`, the cytotoxicity call in the assay on HSkMC (human skeletal muscle cells) and in the assay on HepG2 was “inactive” each time. In addition, the growth inhibition call in the assay with S. aureus RN4220 is “inactive”.

As for `COc1ccc(S(=O)(=O)N(C)C[C@H]2OCCCC[C@@H](C)Oc3ccc(NC(=O)Nc4cccc5ccccc45)cc3C(=O)N([C@@H](C)CO)C[C@H]2C)cc1`, the cytotoxicity call with HSkMC and with HepG2 was “inactive” in each case. The growth inhibition call with S. aureus RN4220 was “inactive”.

The values are drawn from the antibiotic and cytotoxicity screens of Wong et al. (2023).
